Source: PubChem BioAssay AID493208 (National Center for Advancing Translational Sciences (NCATS), 2011)
The campaign covered roughly 44,000 compounds. About 340 (0.77%) were called active. Roughly 5% stayed inconclusive and do not appear here. Calls follow the shape of the dose curve; as a rule, active = well fitted inhibition curve with a large enough effect; inconclusive = small, poorly fitted or top-dose-only effect; inactive = flat fitted curve, though single readings scatter. The list shows a part of the results.

Assay: Acumen qHTS Assay for Inhibitors of the mTORC1 Signaling Pathway in MEF (Tsc2-/-, p53-/-) Cells: Sytravon;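 also: plate controls were DMSO for no effect and rapamycin for full effect; nearly all actives have a fitted effect of over 50% in size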
Conditions: phospho-rpS6 immunofluorescence/PI, 24 h; series mostly up to 38.3 µM; activity change, negative = inhibition: at the top concentration
Procedure, shortened: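 Immunofluorescence of rpS6 phosphorylation in Tsc2-/-, p53-/- MEFs after 24 h compound exposure, normalized to propidium iodide signal. Activity is expressed as % positive cells, thresholded with 7.5 nM rapamycin.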

| SMILES | activity change, negative = inhibition |
| --- | --- |
| Cc1c(NC(=O)c2cc(-c3ccc(F)cc3)on2)c(=O)n(-c2ccccc2)n1C | inactive: -2.45% |
| Cc1nnc(N2CCN(C(=O)NC(C)C)CC2)c2nn(-c3ccccc3)c(C)c12 | inactive: -2.85% |
| Cc1c(C(=O)N(Cc2cccc(F)c2)C2CCS(=O)(=O)C2)oc2cc(Br)ccc12 (configuration not stated) | inactive: 0.329% |
| COc1ccc(NC(=O)CN2C(=O)C3(SCC(=O)N3c3ccccc3)c3ccccc32)cc1Cl (configuration not stated) | inactive: 2.53% |
| COc1ccc(CNC(=O)c2cccc(N3CCCS3(=O)=O)c2)cc1OC | inactive: -10.4% |
| CC(C)c1ccc(NC(=O)c2ccc(Cn3nc(N4CCN(c5ccccc5)CC4)ccc3=O)o2)cc1 | inactive: -11.3% |
| O=C(Cn1ncn2nc(-c3cccs3)cc2c1=O)NCc1ccccc1Cl | inactive: -0.526% |
| CCn1c(=NC(=O)c2ccc(S(=O)(=O)N3CCCC3)cc2)sc2cc(Br)ccc21 | inactive: 5.6% |
| CCOC(=O)c1c(C)c(-c2ccccc2)n(CC(=O)NC2CCCCCC2)c1C | inactive: -1.94% |
| COc1cccc(NC(=O)Cn2cc(C(=O)c3ccc(F)cc3)c(=O)c3cc(OC)ccc32)c1 | inactive: -19.1% |
| Cc1cccc(Cn2cnc3c(oc4ccccc43)c2=O)c1 | inactive: -1.11% |
| COc1ccc(-c2c(C)nn3c(N4CCN(c5ccccc5F)CC4)cc(C)nc23)cc1OC | inactive: 0.947% |
| CCc1c(C)sc2c1CCN(C(=O)Nc1cc(C)ccc1OC)C2c1ccc(F)cc1 (configuration not stated) | inactive: 7.32% |
| Cc1ccc(NS(=O)(=O)c2ccc3[nH]c4c(c3c2)CCCCCC4)cc1 | inactive: -0.926% |
| CCN1CCN(C(c2ccccc2F)c2c(O)cc(C)n(CCOC)c2=O)CC1 (configuration not stated) | inactive: -0.904% |
| N#Cc1ccc(NC2=NS(=O)(=O)c3ccccc32)cc1 | inactive: -3.04% |
| Cc1cc(C)cc(NC(=O)N2CCC(CN3CCc4ccccc4C3)CC2)c1 | inactive: -3.44% |
| CCC(=O)N1CCc2cc(CNS(=O)(=O)c3ccc(Br)s3)ccc21 | inactive: 2.04% |
| Cc1ccc(C)c(N2C(=O)N(C)c3ccccc3S2(=O)=O)c1 | inactive: -4.32% |
| COC(=O)c1c(NC(=O)c2nc(SCc3ccccc3C)ncc2Cl)sc2c1CCCC2 | inactive: 0.616% |
| COc1ccc(-n2c(C)nc3cc(C(=O)NC4CCCCCC4)ccc32)cc1 | inactive: -4.3% |

| SMILES | activity change, negative = inhibition |
| --- | --- |
| CCCN(CCC)CCNC(=O)c1sc2nc3n(c(=O)c2c1C)CCCCC3 | inactive: 2.89% |
| CC1CCCN(S(=O)(=O)c2ccc(N3CCCCS3(=O)=O)cc2)C1 (configuration not stated) | inactive: 0% |
| CCN(C(=O)Cn1c(=O)nc(-c2ccccc2)c2cc(Cl)ccc21)c1cccc(C)c1 | inactive: 0% |
| CCOc1ccccc1CNC(=O)c1cnc2sc(N3CCOCC3)nn2c1=O | inactive: 0.463% |
| CCOc1ccc(CCNC(=O)Cn2ncc3c([nH]c4ccccc43)c2=O)cc1OCC | inactive: -0.522% |
| Cc1cncn1CCc1nc2c3ccccc3nc(SCC(=O)Nc3ccc(F)cc3)n2n1 | inactive: 0.16% |
| CCc1cccc(NC(=O)C2CCC(CNS(=O)(=O)c3ccc4c(c3)CCCC(=O)N4)CC2)c1 (configuration not stated) | inactive: -2.48% |
| CCc1nc2ccc(C(=O)NCc3ccc(SC)cc3)cc2nc1CC | inactive: -6.6% |
| OCCN1CCN(C(c2ccc(Cl)cc2Cl)c2sc3nc(-c4ccco4)nn3c2O)CC1 (configuration not stated) | inactive: -1.32% |
| Clc1ccccc1-c1nnc(-c2ccccc2CNc2ccc(Br)cc2)o1 | inactive: 0.954% |
| CCOc1ccc(-n2c(SCC(=O)Nc3ccc4c(c3)OCCO4)nc3c([nH]c4ccccc43)c2=O)cc1 | inactive: -0.428% |
| COc1ccc(-c2cc(OC(=O)c3ccccc3)c3c(C)oc(C)c3c(=O)c2)cc1OC | inactive: -7.77% |
| CC(C)c1ccc2c(c1)NC(c1ccncc1)=NC(c1cccs1)=N2 | inactive: -18.6% |
| CCc1cccc(NC(=O)C(NS(=O)(=O)c2ccc3nc(C)sc3c2)C(C)C)c1 (configuration not stated) | inactive: -0.0585% |
| C#CCSc1nc(-c2ccccc2)c2cc(Cl)ccc2n1 | inactive: 0.265% |
| CCOc1ccccc1NC(=O)CCc1c(C)nc2c(c(C)nn2-c2ccccc2)c1C | inactive: 0.838% |
| Cc1ccc(Cl)cc1N1CCN(C(=O)c2ccc3c(c2)N(Cc2ccccc2F)C(=O)c2ccccc2S3=O)CC1 (configuration not stated) | inactive: -5.8% |
| O=C(CCS(=O)(=O)c1cc(Br)cc2c1N(C(=O)C1CC1)CC2)Nc1ccc(F)cc1 | inactive: -5.27% |
| Cc1ccc(CNC(=O)c2sc3nc(-c4ccccc4)cn3c2C)cc1 | inactive: -2.35% |
| O=C(NCc1ccc(F)cc1)c1ccc(Cn2c(SCc3ccc(F)cc3)nc3cccnc32)cc1 | inactive: -1.56% |
| CCCN1C(=O)c2[nH]nc(-c3cccc(OC)c3)c2C1c1ccccn1 (configuration not stated) | inactive: 2% |

| SMILES | activity change, negative = inhibition |
| --- | --- |
| CC(C)Cn1c(=O)c2ccccc2n2c(CCC(=O)NCc3ccc(Cl)cc3)nnc12 | inactive: -3.86% |
| Cn1nnc2c(NCc3ccccc3)ncnc21 | inactive: -0.184% |
| Cc1cc(C)cc(-n2c(C)nc3cc(C(=O)NCc4ccc(F)cc4)ccc32)c1 | inactive: -9.54% |
| O=C(CCC(=O)N1CCSc2ccccc21)NCc1ccccc1Cl | inactive: -4.46% |
| CCOc1ccc(CCNC(=O)c2cn(-c3cccc(OC)c3)c(=O)c3ccccc23)cc1 | inactive: -1.26% |
| CCC(C)NC(=O)c1ccc2c(c1)N(Cc1ccccc1F)C(=O)c1ccccc1S2=O (configuration not stated) | inactive: -9.49% |
| CCCCn1c(=N)c(C(=O)NC2CCCCC2)cc2c(=O)n3cccc(C)c3nc21 | inactive: -6.41% |
| Cn1c(=O)oc2cc(S(=O)(=O)NCCC(=O)NCc3ccc(F)cc3)ccc21 | inactive: -2.29% |
| Cc1ccc(C(C)C)c(OCCCn2c(=O)oc3ccccc32)c1 | inactive: -9.07% |
| CC(CNS(=O)(=O)c1ccc2c(c1)CC(=O)N2C)c1ccccc1 (configuration not stated) | inactive: -6.75% |
| CCOC(=O)c1c(C)oc2nc(C)nc(NCCCN3CCN(c4ccc(F)cc4)CC3)c12 | inactive: 7.16% |
| COc1ccccc1NC(=O)c1ccc2oc(=O)c(S(=O)(=O)c3ccccc3)cc2c1 | inactive: -12.5% |
| COc1ccc(C(=O)NCCn2cc(SCc3cc(C)ccc3C)c3ccccc32)cc1 | inactive: -16.4% |
| Cc1cc(N2CCN(c3cccc(C)c3C)CC2)n2nc(C)c(-c3ccc(Cl)cc3)c2n1 | inactive: -0.879% |
| CCOc1ccc(C2c3c(oc4ccccc4c3=O)C(=O)N2c2nnc(C)s2)cc1OC (configuration not stated) | inactive: -13.5% |
| COc1ccc(-n2c(-c3ccco3)nc3c(cnn3-c3ccccc3C)c2=O)cc1 | inactive: -0.0309% |
| Cc1ccccc1CNC(=O)c1cc2cc(S(=O)(=O)N3CCCCC3)ccc2n1C | inactive: 4.32% |
| Cc1cccc(Cn2cnc3c(cnn3-c3ccc(Cl)cc3)c2=O)c1 | inactive: -9.95% |
| Cc1cc(C)n2c(Nc3ccccc3)c(-c3ccccc3)nc2n1 | inactive: 3.56% |
| Cc1cc(C)c2oc(C(=O)Nc3ccc(S(=O)(=O)N4CCC(C)CC4)cc3)cc(=O)c2c1 | inactive: 4.06% |
